According to PubChem BioAssay AID1347417 (National Center for Advancing Translational Sciences (NCATS), 2020):
The whole screen tested about 120,000 compounds, of which about 5,300 (4.4%) were called active. This list was built around the results that the source calls inconclusive (neither active nor inactive); the mix of calls is not that of the screen. Calls come from the whole dose curve; as a rule, active = well fitted inhibition curve with a large enough effect; inconclusive = small, poorly fitted or top-dose-only effect; inactive = no such curve, though single readings can be large or run the other way. A potency beside an inconclusive call is a rough fit, not a confirmed value.

Assay: qHTS Primary assay for Inhibitors of Plasmodium falciparum Dd2 growth in vitro; note: nearly all actives have a fitted effect of over 65% in size;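 for activity, negative = inhibition: plate controls were DMSO vehicle for no effect and reference drug for full effect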
Conditions: P. falciparum Dd2 growth, SYBR Green, 72 h; activity, negative = inhibition: at 28.9 µM (top of the series) unless noted; series mostly up to 28.9 µM
Procedure, shortened: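 Infected erythrocytes (Dd2, 0.3% parasitemia, 2.5% hematocrit final) are added to compound in RPMI-1640/Albumax II medium, grown 72 h at 37C in low oxygen, then lysed with saponin/Triton-X containing SYBR Green and read by fluorescence.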
Potency is the fitted concentration of half-maximal effect; tags give direction and shape of the fitted curve.

| SMILES | Potency | activity, negative = inhibition |
| --- | --- | --- |
| Cc1cccc(NC(=O)Cn2cccc2-c2nc(-c3ccc4c(c3)OCO4)no2)c1 | inconclusive: 11.2 µM [inhibitor, single point] |  |
| CCCCc1cn(C[C@H]2CC3CCN2C[C@@H]3C(=O)NCc2ccco2)nn1 (stereo not given in full) | inactive |  |
| CN(C)c1ccc(C(=O)NCC2CCN(c3cc(-c4ccc(F)cc4)[nH]n3)CC2)cc1 | inconclusive: 3.98 µM [inhibitor, single point] |  |
| Cc1cccc(OCC(=O)Nc2c(C(=O)Nc3ccc(F)cc3)oc3ccccc23)c1 | inactive |  |
| COc1ccc(Nc2cnc3ccc(N(C)Cc4cccnc4)nn23)cc1 | inconclusive: 5.62 µM [inhibitor, single point] |  |
| Cc1cccc(C(=O)NCCc2nc3ccccc3n2CCC(C)C)c1 | inconclusive: 11.2 µM [inhibitor, single point] |  |
| CN(C)C[C@@H]1CN(S(C)(=O)=O)C[C@H]1N | inactive |  |
| O=C(NCc1cccs1)c1nc(-c2ccc(F)cc2)c2cnccn12 | active: 3.98 µM |  |
| CSc1ccc(C2c3c(-c4ccccc4O)n[nH]c3C(=O)N2Cc2ccncc2)cc1 (stereo not given) | active: 12.6 µM |  |
| CC1=NOC2(CCN(Cc3ccc(F)cc3)CC2)C1 | inactive |  |
| O=C1NCCCCCCN(C(=O)CN2CCCCCC2)[C@H]2C[C@H](c3nc(-c4cccnc4)no3)C[C@@H]12 | inconclusive: 2 µM [inhibitor, partial curve, poor fit] |  |
| CCC1CN(Cc2cn(Cc3ccccc3)nc2-c2cc3ccccc3o2)CCO1 (stereo not given) | active: 10 µM |  |
| CCc1noc(-c2cn(C3CCN(C(=O)c4cccn4C)CC3)nn2)n1 | inactive |  |
| CC1(C)[C@H](Cc2cc(CC3CCCCC3)on2)C[C@@H]1NC1CCOCC1 | inconclusive: 5.62 µM [inhibitor, full curve] |  |
| CNC(=O)N1CCC(C2CCN(C(=O)c3ccc(Cl)s3)C2)CC1 (stereo not given) | inconclusive: 17.8 µM [inhibitor, single point] |  |
| Cc1cnccc1N1CCCN(C(=O)c2cccc(C3CCCNC3)c2)CC1 (stereo not given) | inactive |  |
| COC(=O)C1=C(C)N=C2SC=C(CC(=O)N3CCCC3)N2C1c1ccc(OC)cc1 (stereo not given) | inconclusive: 1.78 µM [inhibitor, single point] |  |
| CN(C)C(=O)c1cc(-c2ccc(Cl)nc2)nc2c1cnn2C | inactive |  |
| CCCC(=O)NC[C@@H]1CC[C@H]2C[C@@H]1C2(C)C | inconclusive: 39.8 µM [inhibitor, single point] |  |
| CC(C)(C)OC(=O)N1CCC(c2c(C(=O)N3CCN(c4cccc(Cl)c4)CC3)cnn2-c2cccc(Cl)c2)CC1 | active: 7.08 µM |  |
| O=C(c1cnco1)N1C[C@@H](COc2cccnc2)[C@H](c2ccccn2)C1 | inactive |  |
| COc1ccc(C(=O)N2CCC(Cc3nc(-c4ccccc4)n[nH]3)CC2)cc1OC | inconclusive: 0.178 µM [inhibitor, full curve, poor fit] |  |

| SMILES | Potency | activity, negative = inhibition |
| --- | --- | --- |
| Cc1nn(-c2ccccc2)c2nc(C3CC3)cc(C(=O)Nc3cccc(F)c3)c12 | active: 10 µM |  |
| CCOc1ccc(CNC(=O)c2ccc(CSc3nc4ccncc4n3Cc3ccc(F)cc3)cc2)cc1 | inconclusive: 10 µM [inhibitor, single point] |  |
| COc1cccc(NC(=O)c2oc3ccccc3c2NC(=O)c2ccccc2C)c1 | inconclusive: 15.8 µM [inhibitor, single point] |  |
| O=C(N[C@H]1CO[C@H]2[C@@H]1OC[C@@H]2Nc1nccc(-c2ccccc2)n1)N1CCOCC1 | inconclusive: 12.6 µM [inhibitor, single point] |  |
| COc1ccc(CNC(=O)CN2C(=O)C(c3ccccc3)=NC2(C)C)cc1OC | inactive |  |
| CCC(C)(C)C(=O)N1C[C@@H](CO)[C@H](c2nc(-c3ccncc3)no2)C1 | inactive |  |
| CN1C(=O)[C@H]2CN(Cc3ccco3)C[C@H]2C1=O | inactive |  |
| CN(Cc1ccccc1)Cc1cc(C[C@@H]2CC[C@H](O)[C@@H](CNC(=O)c3cccc(F)c3)O2)no1 | inconclusive: 5.01 µM [inhibitor, partial curve, poor fit] |  |
| CC1=C[C@@H](CNCc2ccccn2)[C@H](C(C)C)C[C@H]1Cc1nnc(-c2ccccc2F)o1 | active: 3.16 µM |  |
| COCC1CN(C)CC12CCN(C(=O)COc1cccc(C)c1)CC2 (stereo not given) | inconclusive: 5.62 µM [inhibitor, partial curve, poor fit] |  |
| CC1(C(=O)NC2CCC2)CN(Cc2ccccc2)Cc2ccc(N3CCOCC3)nc21 (stereo not given) | inactive |  |
| COc1ccccc1NC(=O)c1ncn(-c2ccccc2)n1 | inconclusive: 14.1 µM [inhibitor, partial curve, poor fit] |  |
| CCCCN1C(=O)c2[nH]nc(-c3ccccc3O)c2C1c1ccc(OCc2ccccc2)c(OC)c1 (stereo not given) | active: 11.2 µM |  |
| CN(C)c1ncc2c(n1)C(C)(C(=O)NCCCn1ccnc1)CCC2 (stereo not given) | inactive |  |
| Cc1ccc(Sc2c(C)nn(C(C)(C)C)c2OC(=O)CC(C)C)cc1 | inconclusive: 10 µM [inhibitor, partial curve, poor fit] |  |
| O=C(c1ccn[nH]1)N1CCCCC1c1noc(COc2ccc(F)cc2)n1 (stereo not given) | inactive |  |
| COc1ccc(-c2nnn3c2nc(NCCc2ccc(OC)c(OC)c2)c2ccccc23)cc1 | inconclusive: 3.98 µM [inhibitor, partial curve] |  |
| Cc1nn2c(=O)cc(COc3ccc(/C=C(\C#N)C(=O)Nc4ccccc4C)cc3)nc2s1 | inconclusive: 5.62 µM [inhibitor, partial curve, poor fit] |  |
| Cc1cnc(CC2CCN(C(=O)COc3ccc(F)cc3)CC2)n1Cc1ccc(F)cc1 | inconclusive: 1.12 µM [inhibitor, partial curve, poor fit] |  |
| CCCCN(CCCC)CCCNC(=O)c1ccc2nc(N3CCCCC3)sc2c1 |  | inconclusive: -69.8% [inhibitor] [at 5.79 µM] |
| CC(C)c1noc(-c2ccn3c(CNC(=O)c4ccoc4)nnc3c2)n1 | inconclusive: 3.98 µM [inhibitor, partial curve] |  |
| COc1ccc2oc(-c3cccc(NC(=O)c4cc([N+](=O)[O-])ccc4N4CCOCC4)c3)nc2c1 | inconclusive: 17.8 µM [inhibitor, single point] |  |

| SMILES | Potency | activity, negative = inhibition |
| --- | --- | --- |
| COc1cc(C2c3c(-c4c(C)cc(C)cc4O)n[nH]c3C(=O)N2Cc2ccco2)cc(OC)c1OC (stereo not given) | inconclusive: 11.2 µM [inhibitor, single point] |  |
| COc1ccc(C(=O)N[C@@H]2CCC[C@@H]2C(=O)N2CCN(C(C)C)CC2)cn1 | inconclusive: 11.2 µM [inhibitor, partial curve, poor fit] |  |
| Cc1ccc(C2(O)CCN(C(=O)c3cccc(-c4ncc[nH]4)c3)CC2)nc1 | inconclusive: 10 µM [inhibitor, single point] |  |
| CC1CCN(CC2CCCCCN2C(=O)CC2CCCC2)CC1 (stereo not given) | inconclusive: 1 µM [inhibitor, partial curve, poor fit] |  |
| COc1ccc(CNC(=O)CCCn2ccc3cc(S(=O)(=O)N4CCCC4)ccc32)cc1 | inconclusive: 17.8 µM [inhibitor, single point] |  |
| CCOc1ccccc1NC(=O)CCS(=O)(=O)c1ccc2c(c1)oc(=O)n2C | inconclusive: 2.24 µM [inhibitor, single point] |  |
| CC1=C[C@@H](CNS(=O)(=O)c2ccccc2)[C@H](C(C)C)C[C@H]1CC(=O)O | inconclusive: 31.6 µM [inhibitor, single point] |  |
| CC(C)C(=O)N1CCC(CC(=O)NCc2ccccc2)C1 (stereo not given) | inactive |  |
| CCC1=C(C(=O)OC)C(c2cccc(F)c2)N2C(CC(=O)NCc3ccco3)=CSC2=N1 (stereo not given) | inconclusive: 1 µM [inhibitor, partial curve, poor fit] |  |
| CCN(CC)S(=O)(=O)c1cc(-c2ccc(=O)n(C(C)C(=O)Nc3cccc(C#N)c3)n2)ccc1C (stereo not given) | inconclusive: 11.2 µM [inhibitor, single point] |  |
| COc1ccc(C(=O)Nc2nc3c(s2)Cc2c(Br)ccc(OC)c2-3)cc1OC | inconclusive: 5.01 µM [inhibitor, partial curve, poor fit] |  |
| CCN(CC)CCCNC(=O)c1sc2nc3n(c(=O)c2c1C)CCCCC3 | inconclusive: 17.8 µM [inhibitor, single point] |  |
| CCOC(=O)c1[nH]c2c(c1Cc1ccccc1)C(=O)CC(c1ccc(C(C)(C)C)cc1)C2 (stereo not given) | inconclusive: 20 µM [inhibitor, single point] |  |
| O=C1NC(C(=O)Nc2ccc(F)cc2)Cn2cccc21 (stereo not given) | inactive |  |
| CSc1ccc(-c2ccc(=O)n3c2[C@@H]2C[C@@H](CN(S(=O)(=O)c4cccs4)C2)C3)cc1 | active: 8.91 µM |  |
| CN(C)CCC(=O)N1Cc2ccccc2CC2(CCCN2Cc2cccnc2)C1 (stereo not given) | inconclusive: 10 µM [inhibitor, single point] |  |
| COc1ccc(CNC(=O)[C@H]2O[C@H](CCN3CCN(c4ccccn4)CC3)CC[C@@H]2O)cc1 | inconclusive: 11.2 µM [inhibitor, single point] |  |
| CC(=O)NC[C@H]1OC[C@@H](NC2CCC2)[C@@H]1O | inactive |  |
| Cc1ccc(S(=O)(=O)N(CC(=O)Nc2cccnc2)c2cc(Cl)ccc2C)cc1 | inconclusive: 20 µM [inhibitor, single point] |  |
| Cc1ccc(CN2CCC(CNC(=O)c3cnn(-c4ccc(C)cc4)c3C3CCN(C(=O)OC(C)(C)C)CC3)CC2)cc1 | inconclusive: 1.41 µM [inhibitor, full curve, poor fit] |  |
| Cc1ccc(-n2nc(C(=O)N(C)c3ccc(C)c(C)c3)c3c4ccccc4n(C)c3c2=O)cc1 | inconclusive: 17.8 µM [inhibitor, single point] |  |
